The other results are listed elsewhere or left out. At the low end of the ranking the order means little.
molecular target: T1, GST-Rok-C97-191 (UniProt O34857); assay: protein binding microarray; details: Rok is a gene silencer of Bacillus subtilis; high values mean tight binding; most listed sequences are background and not binding sites; double strand, one strand shown;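 further: rank score from −0.5 (least bound) to 0.5 (best bound)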
T1 sequence: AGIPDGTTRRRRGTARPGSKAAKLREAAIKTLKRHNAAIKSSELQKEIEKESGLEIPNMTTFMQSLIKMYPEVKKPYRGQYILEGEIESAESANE

Row | Sequence | binding signal
1 | CCAACAAC | -0.0721 E-score
2 | ATGTGTGC | -0.12 E-score
3 | CAACCAAG | -0.0171 E-score
4 | AATGAGGC | -0.0993 E-score
5 | ATATATAC | 0.367 E-score
6 | ATTCGAGG | 0.0198 E-score
7 | AGTTACCA | 0.28 E-score
8 | CCATGATA | 0.0924 E-score
9 | ACTATGGG | 0.15 E-score
10 | CACGTCAA | -0.000438 E-score
11 | ACCGCCAT | -0.11 E-score
12 | ATACCACA | 0.0711 E-score
13 | ATTTGTCC | -0.0598 E-score
14 | ACGGCAAG | 0.0145 E-score
15 | TACTACAA | 0.303 E-score
16 | ATCACCTG | 0.125 E-score
17 | ATCACAGC | 0.216 E-score
18 | ACCGCCCA | -0.204 E-score
19 | ACATCTTC | 0.0581 E-score
20 | ATCAAGCG | -0.186 E-score
21 | ACTGAATC | 0.000341 E-score
22 | GTCATGCA | -0.133 E-score

Row | Sequence | binding signal
23 | AATAACGC | -0.0378 E-score
24 | CTTCGCTA | 0.0332 E-score
25 | CGGCATGC | -0.201 E-score
26 | GTGACTCA | -0.115 E-score
27 | AAGGACTC | -0.0498 E-score
28 | ATTTGTAA | 0.203 E-score
29 | GGTCCATA | -0.0791 E-score
30 | GCTGTTCA | -0.0471 E-score
31 | CGGATTCA | 0.0279 E-score
32 | GACGGTCA | 0.0143 E-score
33 | AATCTCCG | 0.0984 E-score
34 | GGCCGTTA | -0.0731 E-score
35 | CGAAAGAG | -0.194 E-score
36 | ACGCCATG | -0.135 E-score
37 | ACTTACGA | 0.153 E-score
38 | GAGTCTAA | 0.0843 E-score
39 | CTCACCTA | 0.0853 E-score
40 | CCGAATCG | -0.179 E-score
41 | CAAGCGCC | -0.193 E-score
42 | CTTGGGAC | -0.184 E-score
43 | GGTGTATA | 0.266 E-score
44 | AAAAATAA | 0.244 E-score

Row | Sequence | binding signal
45 | ATGATCCG | -0.0917 E-score
46 | AATGAGAT | 0.145 E-score
47 | AACGTTCA | 0.0011 E-score
48 | ACAAGTCC | -0.174 E-score
49 | AACTCTGG | -0.0501 E-score
50 | AAGTTTAA | -0.0234 E-score
51 | ACTTTCCA | 0.255 E-score
52 | CACGACAG | -0.0669 E-score
53 | TCAGGTCA | -0.0573 E-score
54 | GCCCCCAC | -0.27 E-score
55 | GGCCGTAA | 0.00218 E-score
56 | CCTAAACA | -0.122 E-score
57 | ACTCTGGG | 0.0142 E-score
58 | CGACGACA | -0.186 E-score
59 | AAATGTAA | 0.349 E-score
60 | CCAGTCGG | -0.167 E-score
61 | TGTTCAAA | 0.0172 E-score
62 | CTCCCTAA | -0.274 E-score
63 | CGCCTCCC | -0.248 E-score
64 | ATGAAGAC | -0.139 E-score
65 | CACTACTA | 0.344 E-score
66 | GATTGACC | -0.023 E-score

Row | Sequence | binding signal
67 | AACATCAT | 0.00751 E-score
68 | ATCAACCG | -0.0451 E-score
69 | AGCCAGAC | -0.155 E-score
70 | GCCCCAAA | -0.228 E-score
71 | CGCCATTA | 0.12 E-score
72 | GAATTATC | 0.23 E-score
73 | CTATACAG | 0.0862 E-score
74 | ACGTTGAA | 0.0897 E-score
75 | AGATTCGC | -0.128 E-score
76 | AATGCTCG | 0.0299 E-score
77 | CTCACGGA | -0.178 E-score
78 | AGCAAGCG | -0.0284 E-score
79 | CAGTGTTA | 0.0901 E-score
80 | AGGTCAAT | -0.0172 E-score
81 | GCCTCTGA | -0.245 E-score
82 | CGAAGCTC | -0.173 E-score
83 | CTTTAGGC | -0.0933 E-score
84 | AATCTTAT | 0.185 E-score
85 | AGCAGAGA | -0.135 E-score
86 | CAACCTTG | -0.0702 E-score

From publication PMC6212790
